# This is one part of the list.
# B1: Thrombomodulin (Mus musculus) (protein)
# chain: ALAKLQPTGSQCVEHECFALFQGPATFLDASQACQRLQGHLMTVRSSVAADVISLLLSQSSMDLGPWIGLQLPQGCDDPVHLGPLRGFQWVTGDNHTSYSRWARPNDQTAPLCGPLCVTVSTATEAAPGEPAWEEKPCETETQGFLCEFYFTASC
# How the values were obtained:
# Assay in all cases: glycan array binding signal (z-score within array); higher = stronger binding
# Details in all cases: glycan notation: IUPAC condensed, linker removed
# [1] = target: Neu5Ac(a2-6)Gal(b1-4)GlcNAc(b1-3)Gal(b1-4)GlcNAc(b1-3)GalNAc
# How it was run: (§1)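 The Consortium for Functional Glycomics database supplied 3228 glycan arrays, of which those lacking an available protein sequence were dropped. The binding signal, a within-array Z-score, was averaged across arrays of the same protein sequence and across linkers. Negative scores can be read as non-binding.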
# [2] = target: Neu5Ac(a2-6)Gal(b1-4)GlcNAc(b1-3)Gal(b1-4)GlcNAc(b1-3)[Neu5Ac(a2-6)Gal(b1-4)GlcNAc(b1-3)Gal(b1-4)GlcNAc(b1-6)]GalNAc
# How it was run: as §1
# [3] = target: Neu5Ac(a2-6)Gal(b1-4)GlcNAc(b1-3)Gal(b1-4)GlcNAc(b1-6)[Gal(b1-3)]GalNAc
# How it was run: as §1
# [4] = target: Neu5Ac(a2-6)Gal(b1-4)GlcNAc(b1-3)Gal(b1-4)[Fuc(a1-3)]GlcNAc(b1-3)Gal(b1-4)[Fuc(a1-3)]GlcNAc
# How it was run: as §1
# [5] = target: Neu5Ac(a2-6)Gal(b1-4)GlcNAc(b1-3)GalNAc
# How it was run: as §1
# [6] = target: Neu5Ac(a2-6)Gal(b1-4)GlcNAc(b1-3)[Neu5Ac(a2-6)Gal(b1-4)GlcNAc(b1-6)]GalNAc
# How it was run: as §1
# [7] = target: Neu5Ac(a2-6)Gal(b1-4)GlcNAc(b1-6)GalNAc
# How it was run: as §1
# [8] = target: Neu5Ac(a2-6)Gal(b1-4)GlcNAc(b1-6)[Gal(b1-3)GlcNAc(b1-3)]Gal(b1-4)Glc
# How it was run: as §1
# [9] = target: Neu5Ac(a2-6)Gal(b1-4)GlcNAc(b1-6)[Gal(b1-3)]GalNAc
# How it was run: as §1
# [10] = target: Neu5Ac(a2-6)Gal(b1-4)GlcNAc6S
# How it was run: as §1
# Neu5Ac(a2-6)GalNAc = target: Neu5Ac(a2-6)GalNAc
# How it was run: as §1
# [11] = target: Neu5Ac(a2-6)GalNAc(b1-4)GlcNAc
# How it was run: as §1
# [12] = target: Neu5Ac(a2-6)GalNAc(b1-4)GlcNAc6S
# How it was run: as §1
# [13] = target: Neu5Ac(a2-6)GlcNAc(b1-4)GlcNAc
# How it was run: as §1
# [14] = target: Neu5Ac(a2-6)GlcNAc(b1-4)GlcNAc(b1-4)GlcNAc
# How it was run: as §1
# Neu5Ac(a2-8)Neu5Ac = target: Neu5Ac(a2-8)Neu5Ac
# How it was run: as §1
# [15] = target: Neu5Ac(a2-8)Neu5Ac(a2-3)Gal(b1-3)GalNAc(b1-4)[Neu5Ac(a2-3)]Gal(b1-4)Glc
# How it was run: as §1
# [16] = target: Neu5Ac(a2-8)Neu5Ac(a2-3)Gal(b1-3)GalNAc(b1-4)[Neu5Ac(a2-8)Neu5Ac(a2-3)]Gal(b1-4)Glc
# How it was run: as §1
# [17] = target: Neu5Ac(a2-8)Neu5Ac(a2-3)Gal(b1-4)Glc
# How it was run: as §1
# [18] = target: Neu5Ac(a2-8)Neu5Ac(a2-3)Gal(b1-4)GlcNAc
# How it was run: as §1
# [19] = target: Neu5Ac(a2-8)Neu5Ac(a2-3)[Gal(b1-3)GalNAc(b1-4)]Gal(b1-4)Glc
# How it was run: as §1
# [20] = target: Neu5Ac(a2-8)Neu5Ac(a2-3)[GalNAc(b1-4)]Gal(b1-4)Glc
# How it was run: as §1
# [21] = target: Neu5Ac(a2-8)Neu5Ac(a2-8)Neu5Ac
# How it was run: as §1
# [22] = target: Neu5Ac(a2-8)Neu5Ac(a2-8)Neu5Ac(a2-3)Gal(b1-4)Glc
# How it was run: as §1
# [23] = target: Neu5Ac(a2-8)Neu5Ac(a2-8)Neu5Ac(a2-3)[Gal(b1-3)GalNAc(b1-4)]Gal(b1-4)Glc
# How it was run: as §1
# [24] = target: Neu5Ac(a2-8)Neu5Ac(a2-8)Neu5Ac(a2-3)[GalNAc(b1-4)]Gal(b1-4)Glc
# How it was run: as §1
# [25] = target: Neu5Ac(a2-8)Neu5Ac(a2-8)Neu5Ac(a2-8)Neu5Ac(a2-3)[GalNAc(b1-4)]Gal(b1-4)Glc
# How it was run: as §1
# [26] = target: Neu5Ac(a2-8)Neu5Gc(a2-3)Gal(b1-4)GlcNAc
# How it was run: as §1
# [27] = target: Neu5Ac(b2-6)Gal(b1-4)GlcNAc
# How it was run: as §1
# Neu5Ac(b2-6)GalNAc = target: Neu5Ac(b2-6)GalNAc
# How it was run: as §1
# [28] = target: Neu5Ac9Ac(a2-3)Gal(b1-3)GlcNAc
# How it was run: as §1
# [29] = target: Neu5Ac9Ac(a2-3)Gal(b1-4)GlcNAc
# How it was run: as §1
# [30] = target: Neu5Ac9Ac(a2-6)Gal(b1-4)GlcNAc
# How it was run: as §1
# [31] = target: Neu5Gc(a2-3)Gal(b1-3)GlcNAc
# How it was run: as §1
# [32] = target: Neu5Gc(a2-3)Gal(b1-3)[Fuc(a1-4)]GlcNAc
# How it was run: as §1
# Neu5Gc(a2-3)Gal(b1-4)Glc = target: Neu5Gc(a2-3)Gal(b1-4)Glc
# How it was run: as §1
# [33] = target: Neu5Gc(a2-3)Gal(b1-4)GlcNAc
# How it was run: as §1
# [34] = target: Neu5Gc(a2-3)Gal(b1-4)GlcNAc(b1-3)Gal(b1-4)GlcNAc(b1-2)Man(a1-3)[Neu5Gc(a2-3)Gal(b1-4)GlcNAc(b1-3)Gal(b1-4)GlcNAc(b1-2)Man(a1-6)]Man(b1-4)GlcNAc(b1-4)GlcNAc
# How it was run: as §1
# [35] = target: Neu5Gc(a2-3)Gal(b1-4)[Fuc(a1-3)]GlcNAc
# How it was run: as §1
# [36] = target: Neu5Gc(a2-6)Gal(b1-4)GlcNAc
# How it was run: as §1
# Neu5Gc(a2-6)GalNAc = target: Neu5Gc(a2-6)GalNAc
# How it was run: as §1
# [37] = target: Neu5Gc(a2-8)Neu5Ac(a2-3)Gal(b1-4)GlcNAc
# How it was run: as §1
# [38] = target: Neu5Gc(a2-8)Neu5Gc(a2-3)Gal(b1-4)GlcNAc
# How it was run: as §1
# [39] = target: Neu5Gc(a2-8)Neu5Gc(a2-3)Gal(b1-4)GlcNAc(b1-3)Gal(b1-4)GlcNAc
# How it was run: as §1
# [40] = target: Neu5Gc(a2-8)Neu5Gc(a2-6)Gal(b1-4)GlcNAc
# How it was run: as §1
# [41] = target: Neu5Gc(b2-6)Gal(b1-4)GlcNAc
# How it was run: as §1
binder,measurement,setting,value
B1,glycan array binding signal (z-score),[1],-0.161
same,glycan array binding signal (z-score),[2],-0.041
same,glycan array binding signal (z-score),[3],-0.257
same,glycan array binding signal (z-score),[4],-0.352
same,glycan array binding signal (z-score),[5],-0.35
same,glycan array binding signal (z-score),[6],-0.137
same,glycan array binding signal (z-score),[7],-0.181
same,glycan array binding signal (z-score),[8],-0.156
same,glycan array binding signal (z-score),[9],-0.336
same,glycan array binding signal (z-score),[10],-0.551
same,glycan array binding signal (z-score),Neu5Ac(a2-6)GalNAc,-0.171
same,glycan array binding signal (z-score),[11],-0.193
same,glycan array binding signal (z-score),[12],0.316
same,glycan array binding signal (z-score),[13],-0.205
same,glycan array binding signal (z-score),[14],-0.115
same,glycan array binding signal (z-score),Neu5Ac(a2-8)Neu5Ac,0.118
same,glycan array binding signal (z-score),[15],-0.369
same,glycan array binding signal (z-score),[16],-0.021
same,glycan array binding signal (z-score),[17],-0.266
same,glycan array binding signal (z-score),[18],-0.54
same,glycan array binding signal (z-score),[19],0.188
same,glycan array binding signal (z-score),[20],-0.063
same,glycan array binding signal (z-score),[21],-0.27
same,glycan array binding signal (z-score),[22],-0.108
same,glycan array binding signal (z-score),[23],0.169
same,glycan array binding signal (z-score),[24],-0.302
same,glycan array binding signal (z-score),[25],0.028
same,glycan array binding signal (z-score),[26],-0.404
same,glycan array binding signal (z-score),[27],-0.139
same,glycan array binding signal (z-score),Neu5Ac(b2-6)GalNAc,-0.216
same,glycan array binding signal (z-score),[28],-0.212
same,glycan array binding signal (z-score),[29],0.1
same,glycan array binding signal (z-score),[30],0.153
same,glycan array binding signal (z-score),[31],-0.302
same,glycan array binding signal (z-score),[32],0.081
same,glycan array binding signal (z-score),Neu5Gc(a2-3)Gal(b1-4)Glc,-0.117
same,glycan array binding signal (z-score),[33],-0.133
same,glycan array binding signal (z-score),[34],-0.161
same,glycan array binding signal (z-score),[35],-0.057
same,glycan array binding signal (z-score),[36],-0.077
same,glycan array binding signal (z-score),Neu5Gc(a2-6)GalNAc,-0.326
same,glycan array binding signal (z-score),[37],-0.082
same,glycan array binding signal (z-score),[38],-0.438
same,glycan array binding signal (z-score),[39],-0.516
same,glycan array binding signal (z-score),[40],-0.048
same,glycan array binding signal (z-score),[41],0.042

# Source: the supplement of paper PMC8728848
